Assay results from the supplement of paper PMC10369915.
The other results are listed elsewhere or left out. No stated cut-off is given here; in the data, active = 3.2 or more and inactive = the rest. The signal is at background level for most entries.

Experiments:
Test in all cases: enrichment score (SH2-bound / input frequency) (ratio); bacterial display of known human phosphotyrosine sites (pTyr-Var adds point mutants) read by sequencing; higher = stronger binding; tyrosines were phosphorylated by kinases first
Details in all cases: peptide library: pTyr-Var
[1] = molecular target: SHP2 C-SH2 domain E139D
[2] = molecular target: SHP2 C-SH2 domain wild-type
[3] = molecular target: SHP2 N-SH2 domain L43F
[4] = molecular target: SHP2 N-SH2 domain T42A
[5] = molecular target: SHP2 N-SH2 domain T52S
[6] = molecular target: SHP2 N-SH2 domain wild-type

Measured: enrichment score
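Further: displayed peptides selected on beads carrying the immobilized SH2 domain, with library peptides lacking any tyrosine serving as negative controls.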

B1: MYH7_Y422 (peptide)
chain: VQQVIYATGAL
inactive: [1] 1.03 | [2] 0.98 | [3] 0.931 | [4] 0.835 | [5] 0.922 | [6] 1.15

B2: MYH7_Y609_V606M (peptide)
chain: TVMGLYQKSSL
inactive: [1] 1.24 | [2] 0.548 | [3] 1.25 | [4] 0.786 | [5] 1.18 | [6] 1.02

B3: MYL12B_Y143_E141G (peptide)
chain: EVDGLYREAPI
inactive: [1] 0.614 | [2] 0.491 | [3] 0.536 | [4] 0.466 | [5] 0.515 | [6] 0.583

B4: MYH9_Y151 (peptide)
chain: MPPHIYAITDT
inactive: [1] 1.19 | [2] 0.855 | [3] 1.1 | [4] 1.26 | [5] 1.1 | [6] 0.992

B5: MYO1B_Y967 (peptide)
chain: PFQGAYLEINK
inactive: [1] 1.08 | [2] 1.01 | [3] 1.28 | [4] 1.92 | [5] 1 | [6] 1.12

B6: MYO3B_Y993_R990C (peptide)
chain: IRCQGYSHRIL
inactive: [1] 1.77 | [2] 1.71 | [3] 1.62 | [4] 1.72 | [5] 1.91 | [6] 1.63

B7: MYLK_Y611_R607G (peptide)
chain: SGKSEYLLPVA
inactive: [1] 0.811 | [2] 0.726 | [3] 0.773 | [4] 0.765 | [5] 0.726 | [6] 0.74

B8: MYH7_Y588_G584R (peptide)
chain: ARIVDYNIIGW
inactive: [1] 0.822 | [2] 0.815 | [3] 0.642 | [4] 0.874 | [5] 0.712 | [6] 0.888

B9: MYL6_Y89 (peptide)
chain: GTYEDYVEGLR
inactive: [1] 0.843 | [2] 0.681 | [3] 0.832 | [4] 0.622 | [5] 0.556 | [6] 0.678

B10: MYO7A_Y1668 (peptide)
chain: PTDSVYVMPTV
inactive: [1] 0.678 | [2] 0.784 | [3] 0.676 | [4] 0.656 | [5] 0.933 | [6] 0.894

B11: MYO1D_Y585 (peptide)
chain: ASKEPYYVRCI
inactive: [1] 0.723 | [2] 0.885 | [3] 0.686 | [4] 0.792 | [5] 0.584 | [6] 0.841

B12: MYO1A_Y382 (peptide)
chain: GVLDIYGFEIL
inactive: [1] 0.94 | [2] 0.907 | [3] 0.903 | [4] 0.82 | [5] 0.952 | [6] 1.33

B13: MYO1D_Y585_YF (peptide)
chain: ASKEPYFVRCI
inactive: [1] 0.652 | [2] 0.653 | [3] 0.721 | [4] 0.589 | [5] 0.672 | [6] 1.07

B14: MYH7_Y1852_T1854M (peptide)
chain: IKELTYQMEED
inactive: [1] 0.61 | [2] 0.731 | [3] 0.647 | [4] 0.647 | [5] 0.651 | [6] 0.906

B15: MYH7_Y588_D587V (peptide)
chain: AGIVVYNIIGW
inactive: [1] 1.26 | [2] 1.67 | [3] 1.56 | [4] 1.33 | [5] 1.05 | [6] 2.29

B16: MYH7_Y266_I263M (peptide)
chain: ADMETYLLEKS
inactive: [1] 0.901 | [2] 0.675 | [3] 0.786 | [4] 0.645 | [5] 0.783 | [6] 0.772

B17: MYH7_Y715_R712L (peptide)
chain: PNLILYGDFRQ
inactive: [1] 0.846 | [2] 0.874 | [3] 0.985 | [4] 1.19 | [5] 0.985 | [6] 1.38

B18: MYH7_Y1488_S1491C (peptide)
chain: KLKNAYEECLE
inactive: [1] 0.913 | [2] 0.915 | [3] 0.95 | [4] 0.82 | [5] 0.955 | [6] 0.938

B19: MYO1D_Y585_R588H_YF (peptide)
chain: ASKEPYFVHCI
inactive: [1] 0.819 | [2] 0.89 | [3] 0.823 | [4] 0.817 | [5] 0.76 | [6] 0.796

B20: MYL6_Y86_T85I_YF (peptide)
chain: KDQGIYEDFVE
inactive: [1] 0.577 | [2] 0.716 | [3] 0.7 | [4] 0.615 | [5] 0.513 | [6] 0.741

B21: MYO9A_Y203_YF (peptide)
chain: KFVKMYDNHQL
inactive: [1] 0.799 | [2] 0.803 | [3] 0.72 | [4] 0.624 | [5] 0.864 | [6] 0.792

B22: MYH7_Y422_G425R (peptide)
chain: VQQVIYATRAL
inactive: [1] 1 | [2] 1.08 | [3] 1.2 | [4] 0.843 | [5] 0.992 | [6] 0.919

B23: MYO9A_Y216 (peptide)
chain: LEPHIYAVADV
inactive: [1] 0.825 | [2] 0.881 | [3] 0.76 | [4] 0.871 | [5] 0.759 | [6] 1

B24: MYO1D_Y586_R588H_YF (peptide)
chain: SKEPFYVHCIK
inactive: [1] 0.908 | [2] 0.832 | [3] 0.727 | [4] 0.606 | [5] 0.781 | [6] 0.747

B25: MYH7_Y162 (peptide)
chain: ISDNAYQYMLT
inactive: [1] 1.14 | [2] 1.13 | [3] 0.919 | [4] 1.02 | [5] 0.875 | [6] 0.696

B26: MYO3A_Y1396 (peptide)
chain: HNLYSYPTKHE
inactive: [1] 1.12 | [2] 1.76 | [3] 1.07 | [4] 1.18 | [5] 1.06 | [6] 1.57

B27: MYO9A_Y203_Y203C (peptide)
chain: KYVKMCDNHQL
inactive: [1] 0.925 | [2] 0.827 | [3] 0.944 | [4] 0.736 | [5] 0.972 | [6] 0.86

B28: MYO1D_Y586 (peptide)
chain: SKEPYYVRCIK
inactive: [1] 0.723 | [2] 1 | [3] 0.732 | [4] 0.749 | [5] 0.615 | [6] 0.882

B29: MYH7_Y410 (peptide)
chain: KVGNEYVTKGQ
inactive: [1] 0.487 | [2] 0.478 | [3] 0.545 | [4] 0.376 | [5] 0.463 | [6] 0.834

B30: MYH7_Y715_G716R (peptide)
chain: PNRILYRDFRQ
inactive: [1] 0.49 | [2] 0.504 | [3] 0.476 | [4] 0.395 | [5] 0.424 | [6] 0.374

B31: MYO9A_Y216_L211P (peptide)
chain: PEPHIYAVADV
inactive: [1] 0.652 | [2] 0.826 | [3] 0.611 | [4] 0.558 | [5] 0.777 | [6] 0.834

B32: MYO5C_Y526 (peptide)
chain: WLQKLYNNFVN
inactive: [1] 2.25 | [2] 2.3 | [3] 2.44 | [4] 2.25 | [5] 2.36 | [6] 2.17

B33: MYO5C_Y633_L634S (peptide)
chain: FRSSLYSLMET
inactive: [1] 1.18 | [2] 0.995 | [3] 1.15 | [4] 1.81 | [5] 1.18 | [6] 0.978

B34: MYO1A_Y382_E385D (peptide)
chain: GVLDIYGFDIL
inactive: [1] 1.13 | [2] 1.32 | [3] 0.91 | [4] 1 | [5] 0.983 | [6] 1.16

B35: MYH7_Y164 (peptide)
chain: DNAYQYMLTDR
inactive: [1] 0.744 | [2] 0.75 | [3] 0.593 | [4] 1.22 | [5] 0.886 | [6] 0.709

B36: MYO7A_Y2136 (peptide)
chain: IAINKYGVSLI
inactive: [1] 0.919 | [2] 1.11 | [3] 0.746 | [4] 0.578 | [5] 0.798 | [6] 1.35

B37: MYL6_Y86_T85I (peptide)
chain: KDQGIYEDYVE
inactive: [1] 0.53 | [2] 0.659 | [3] 0.575 | [4] 0.817 | [5] 0.529 | [6] 0.618
